PubChem BioAssay AID493208 (National Center for Advancing Translational Sciences (NCATS), 2011)
The whole screen tested about 44,000 compounds, of which about 340 (0.77%) were called active. Inconclusive results (about 5%) are left out. The call rests on the fitted dose curve; in most records, active means well fitted inhibition curve with a large enough effect; inconclusive means small, poorly fitted or top-dose-only effect; inactive means flat fitted curve, though single readings scatter. Some of the results follow.

Test: Acumen qHTS Assay for Inhibitors of the mTORC1 Signaling Pathway in MEF (Tsc2-/-, p53-/-) Cells: Sytravon;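 further: plate controls were DMSO for no effect and rapamycin for full effect; nearly all actives have a fitted effect of over 50% in size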
Conditions: phospho-rpS6 immunofluorescence/PI, 24 h; series mostly up to 38.3 µM; activity change, negative = inhibition: at the top concentration
Outline: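 Plate MEFs (Tsc2-/-, p53-/-, empty vector) in DMEM/10% FBS; after 24 h add compound, incubate 24 h at 37 degree Celsius; fix in PFA/TX-100, block, stain phospho-rpS6 and 10 uM PI; scan at 488 nm; report % positive cells.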

Activity change, negative = inhibition, inactive:
COCCNC(=O)c1nn(-c2ccc(C)cc2)c(=O)n(C)c1=O -0.784%, COc1ccc(C(CNC(=O)c2oc3cc(C)c(Cl)cc3c2C)N2CCCCC2)cc1 (stereo not given) 2.23%, COCCNC(=O)CCc1c(C)n(C)c2cc(-c3cc(OC)c(OC)c(OC)c3)nn2c1=O 1.06%, CC1CCN(S(=O)(=O)c2ccc3nc(NCc4ccccc4)ccc3c2)CC1 0%, Cn1c(=O)c(=O)n(C)c2cc(C(=O)NCc3ccccc3Cl)ccc21 0.154%, O=C(Cn1nc(-c2ccc(Cl)cc2)c2ccccc2c1=O)Nc1cccc(C(F)(F)F)c1 5.71%, COC(=O)c1scc(-c2ccc(C)cc2)c1S(=O)(=O)N1CCN(c2ccc(C)cc2C)CC1 -21.6%, COc1cccc(Nc2nc3ccccc3c3nncn23)c1 -4.37%, Cn1c(SCc2cc(=O)c3cc(Cl)ccc3[nH]2)nnc1-c1ccccc1 -14.2%, O=C(NCc1ccccc1Cl)c1c2c(nc3ccccc13)C(=O)N(C1CCCCC1)C2 -18.7%, CCCCC(=O)Nc1ccc(OCc2cc(=O)n3c(C)csc3n2)cc1 -16.1%, COC(=O)CCCCCn1c(-c2ccccc2)cn2c3c(=O)n(C)c(=O)n(C)c3nc12 -23.1%, CCN(CC)c1ccc(C2C(C(=O)Nc3ccccc3C)=C(C)Nc3ncnn32)cc1 (stereo not given) -1.08%, Cc1ccn2c(=O)cc(CSc3nnc(C)s3)nc2c1 3.22%, COc1ccc(OC)c(C(=O)CSc2ncc3c(n2)-c2ccccc2N(Cc2ccccc2C)S3(=O)=O)c1 3.9%, Cc1cccc(CCn2c(=O)c3ccccc3n(CC(=O)Nc3ccccc3F)c2=O)c1 -18.7%, Cc1cc2c(cc1NC(=O)c1ccccc1Cl)n(C)c(=O)c(=O)n2C -5.79%, CCN(Cc1ccccc1)Cc1c(O)ccc2c(=O)c(-c3ccc(Cl)cc3)c(C(F)(F)F)oc12 -24.1%, CCN(CC)CCCNC(=O)c1cn(CC(C)C)c(=O)c2c1c1ccccc1n2C 1.02%, COc1ccc(-c2nnc(SCC(=O)N3CCc4ccccc43)o2)cc1OC -2.02%, Cc1ccc2nc(-c3ccsc3)c(Nc3ccc(Cl)cc3)n2c1 -10.5%, Cc1cccc(-c2noc(-c3ccccc3OCC(=O)Nc3ccccc3[N+](=O)[O-])n2)c1 0.844%, Cc1ccn2cc(CNC(=O)c3cccc(C(F)(F)F)c3)nc2c1 -0.547%, CC(=O)c1cccc(NC(=O)[C@H]2O[C@@H]3OC(C)(C)O[C@@H]3[C@H]3OC(C)(C)O[C@H]32)c1 -7.91%, COc1ccc(-c2nc3scc(CCNS(=O)(=O)c4ccc(Oc5ccccc5)cc4)n3n2)cc1 -0.0123%, CCOC(=O)c1ccc(NC(=O)C(C)Sc2nc(=O)cc(N)n2CCc2ccccc2)cc1 (stereo not given) 7.51%, COc1ccc(OCC(=O)N(Cc2sccc2C)C2CCS(=O)(=O)C2)cc1 (stereo not given) 3.93%, CCN(CC)C(=O)Cn1c(=O)n(Cc2ccc(C(=O)NCCCOC)cc2)c(=O)c2ccccc21 -13.6%, O=C(Nc1ccc(F)cc1F)c1cc(S(=O)(=O)N2CCCCC2)c[nH]1 -10.5%, CCn1c2c(c(=O)n3ncc(C(=O)N4CCN(c5ccc(C(C)=O)cc5)CC4)c13)CN(Cc1ccc(OC)cc1)CC2 1.9%, Cc1ccc(C)c(N2C(=O)N(Cc3cccc(C(F)(F)F)c3)c3ccccc3S2(=O)=O)c1 -0.42%, Cc1ccc(C)c(NC(=O)N2CCN3CCCCC3C2)c1 (stereo not given) 1.82%, COc1ccc(F)cc1S(=O)(=O)Nc1ccc2c(c1)CCCN2C(=O)c1cccs1 0%, COc1ccc(C(=O)CCC(=O)Nc2ccc(F)cc2F)cc1 -8.71%, COC(=O)c1sccc1S(=O)(=O)N(CC(=O)NCc1ccc(C)cc1)c1ccc(C)c(C)c1 -2.96%, CCOC(=O)CSc1nc2cc(OC)c(OC)cc2c2nc(-c3ccccc3)nn12 -7.28%, CC(=O)c1c(C)oc2c1cc(NS(=O)(=O)c1c(C)cc(C)cc1C)c1ccccc12 1.75%, Cc1cc(NC(=O)c2cc(Cl)ccc2Cl)ccc1-c1cc2ccccc2oc1=O 19.3%, CCOC(=O)C1=C(C)N=C2SCCC(=O)N2C1c1ccc(OCc2ccccc2)c(OC)c1 (stereo not given) 3.37%, NS(=O)(=O)c1ccc(NC(=O)COc2ccc(S(=O)(=O)NC3CCCCC3)cc2)cc1 -9.65%, COc1cccc(-n2nnc(-c3nc(-c4cccs4)no3)c2N)c1 -3.08%, COc1ccc(NS(=O)(=O)c2ccc3[nH]c(=O)ccc3c2)cc1OC -16.1%, CCOc1ccc(S(=O)(=O)Nc2cccc(OC)c2)c2cccnc12 -23.1%, O=C1CS(=O)(=O)C2(C(=O)N(Cc3ccccc3)c3ccccc32)N1c1ccc(F)c(Cl)c1 (stereo not given) 0%, COc1ccc(S(=O)(=O)N(CC(=O)Nc2ccccc2Cl)Cc2ccccc2)cc1 1.8%, CN1C(=O)c2ccccc2Sc2ccc(NC(=O)NCc3ccc(Cl)cc3)cc21 -28.1%, Cc1ccc(CCNC(=O)CN2C(=O)COc3ccc(S(=O)(=O)N4CCCCCC4)cc32)cc1 -7.48%, O=C(Nc1cccc(Cl)c1)c1cc(-c2ccc3c(c2)OCO3)on1 2.07%, COc1cc(OC)cc(C(=O)Nc2ccc3nc4n(c(=O)c3c2)CCCCC4)c1 4.33%, COc1ccccc1C(=O)Oc1c(Sc2ccccc2)c(C)nn1-c1ccccc1 3.17%, O=C(Nc1cc(-c2ccc(Cl)cc2)no1)c1ccc(F)cc1 -4%, CCCSCCCNC(=O)CN1C(=O)COc2ccc(S(=O)(=O)N3CCCC3)cc21 -13.5%, Cc1ccc(C)c(N2CCN(C(=O)c3ccc4c(=O)n(CCc5ccccc5)c(=O)[nH]c4c3)CC2)c1 -7.1%, COCCc1nn2c(=O)cc(COC(=O)c3ccccc3C)nc2s1 1.86%, COc1cc(NC(=O)C2=CC(c3ccco3)=NS(=O)(=O)N2C)cc(OC)c1OC 2.05%, O=C(COc1ccc(F)cc1)Nc1ccccc1C(=O)OCc1cc(=O)n2ccsc2n1 0%, CCOC(=O)c1[nH]c2c(c1Cc1ccccc1OC)C(=O)CC(c1ccccc1)C2 (stereo not given) -11.1%, CCCCn1c(=O)c2oc3ccccc3c2n(Cc2ccccc2C)c1=O -2.36%, Cc1nc(-c2ccccc2)sc1CCNC(=O)C(=O)Nc1ccc(F)c(Cl)c1 -9.3%, NC(=O)c1ccccc1NC(=O)CN1c2ccccc2S(=O)(=O)c2ccccc21 -3.38%, COC(=O)c1c(NC(=O)COc2ccc(Cl)cc2)sc(C)c1C 3.12%, COCc1cc(C)nc2c1C(=O)NC(c1ccc(Br)cc1)N2Cc1ccccc1 (stereo not given) 3.22%, COc1cccc(N2CCN(C(=O)Cn3nc(C)n4c(cc5c(OC)cccc54)c3=O)CC2)c1 -1.93%, CCc1ccc(-n2nnc(-c3nc(-c4ccc(C)cc4)no3)c2N)cc1 -10.6%, COc1cc(Cl)c(C)cc1NC(=O)Cn1c2ncccc2c(=O)n1-c1ccccc1 -1.25%, COc1ccc(Cl)cc1C(=O)NCc1nnnn1-c1ccccc1 0%, O=C(Nc1sc2c(c1C(=O)NCc1ccccc1)CCCC2)c1cc(=O)c2ccccc2o1 1.57%, CCc1ccc(NC(=O)C(=O)NCC(c2cccnc2)N2CCc3ccccc3C2)cc1 (stereo not given) 6.92%, O=C(NCc1ccc(Cl)cc1)C1CCN(c2ncnc3c2nc2n3CCCCC2)CC1 -0.407%, CCc1ccc(NC(=O)CSc2nc3c(c(=O)[nH]2)CN(Cc2ccc(C)cc2)CC3)cc1 1.59%, CCOc1ccccc1C(=O)NCC(c1cccs1)S(=O)(=O)c1ccc(F)c(C)c1 (stereo not given) -10.4%, CC1CCN(C(=O)Cn2cc(SCC(=O)Nc3ccccc3)c3ccccc32)CC1 0%, COc1cccc(-c2nc(SCC(=O)NCc3ccco3)c3c(=O)n(C)c(=O)n(C)c3n2)c1 5.4%, COc1ccc(Cn2c(=O)n(-c3ccc(OC)cc3)c(=O)c3c2c2cc(OC)ccc2n3C)cc1 0.224%, CCN(CC)S(=O)(=O)c1ccc2c(c1)c(=O)c(C(=O)NCc1ccccc1Cl)cn2C -8.37%, COc1ccc(-c2cc(C)no2)cc1S(=O)(=O)NCc1ccco1 0%, COc1cc(NC(=O)c2c3c(nc4ccccc24)C(=O)N(C2CCCCC2)C3)cc(OC)c1 -6.52%, CCOC(=O)c1c(-c2ccc(C)cc2)csc1NC(=O)c1cc(=O)c2cc(C)cc(C)c2o1 0.353%, O=C(CSc1c2c(nc3cc(Cl)ccc13)CCCC2)N1CCN(c2ccccc2)CC1 -27.3%, Cc1ccc(S(=O)(=O)Cc2nc(-c3ccc(C(=O)NCc4ccccc4C)cc3)oc2C)cc1 -1.56%, COc1ccc(Cn2ccn(Cc3cccc(Cl)c3)c(=O)c2=O)cc1 8.65%, CC(=O)c1ccc(NC(=O)C2=CC(c3ccc(C)cc3)=NS(=O)(=O)N2C)cc1 -2.67%, CCCn1cc(S(=O)(=O)c2ccc(OC)cc2)c(=O)c2cc(F)c(N3CCCC(C)C3)cc21 (stereo not given) -1.15%, O=C(COc1ccccc1F)Nc1c(C(=O)Nc2cccc(F)c2)oc2ccccc12 -4.16%, Cc1ccc(C(=O)Nc2nc3nc(-c4ccccc4)cc(=O)n3[nH]2)cc1 -0.949%, CCCCCOC(=O)CSc1nc2sc3c(c2c(=O)n1-c1ccccc1)CC(C)(CC)OC3 (stereo not given) 4.72%, O=C(Nc1cc(-c2ccccc2F)nn1-c1ccccc1)c1ccccc1Br -11.7%, Cc1ccc(CNC(=O)CCS(=O)(=O)c2cc3c(cc2C)NC(=O)CO3)cc1 5.9%, O=C(CSc1nc2c(oc3ccccc32)c(=O)n1Cc1ccco1)Nc1ccccc1 0.208%, CCCSC1=NC2(CCN(C(=O)NC3CCCCC3)CC2)N=C1c1ccc(Cl)cc1 -2.82%, Cc1ccc(CN2CCCN(Cc3c(C)cc(C)cc3C)S2(=O)=O)cc1 -11.8%, Cc1cccc(CSc2nc(-c3cccc(C)c3)nc3c2Cc2c(CO)cnc(C)c2O3)c1 -2.24%, CC(C)(C)C(=O)OCc1cc(=O)n2nc(C3CC3)sc2n1 -0.922%, COc1ccc(C)cc1NC(=O)COCc1cc(-c2ccc(F)cc2)on1 2.47%, Cc1ccc(N2CCN(S(=O)(=O)c3c(C)[nH]c(=O)[nH]c3=O)CC2C)cc1 (stereo not given) 1.35%
